Experimental data as given in PubChem BioAssay AID686971 (National Center for Advancing Translational Sciences (NCATS), 2013).
Out of some 360,000 compounds screened, about 7,500 (2.1%) were called active. This list was built around the results that the source calls inconclusive (neither active nor inactive); the mix of calls is not that of the screen. Calls come from the whole dose curve; as a rule, active = well fitted cell-killing curve with a large enough effect; inconclusive = small, poorly fitted or top-dose-only effect, or effect the other way, or another doubt; inactive = no such curve, though single readings can be large or run the other way. No potency is given beside an inconclusive call; the fits are too rough.

Assay: qHTS for induction of synthetic lethality in tumor cells producing 2HG: qHTS for the HT-1080-IDH1KD cell line;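 for activity, negative = toxicity: 0% = DMSO wells and -100% = cell-free medium wells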
Conditions: HT-1080 IDH1 knockdown viability, ATP luminescence, 48 h; activity, negative = toxicity: at 46.1 µM (top of the series) unless noted
Method in brief: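 % activity derives from luminescence (CellTiter-Glo), normalised to DMSO and no-cell wells. HT-1080-IDH1KD cells, 750/well, had 48 h compound exposure at 37 °C.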
Potency is the fitted concentration of half-maximal effect; tags give direction and shape of the fitted curve.

Structure (SMILES) | Potency | activity, negative = toxicity
CCCNC(=O)C1(C)CCCN(Cc2c(C)nn(-c3ccccc3)c2C)C1 (configuration not stated) | inconclusive [rising, single point] | –
O=C(CSc1nc2c(sc3ccccc32)c(=O)n1CCCN1CCCC1)NCc1ccccc1 | inconclusive [cytotoxic, single point] | –
COc1cc(-c2nc3ccc4ccccc4c3c3c2CCC3)ccc1O | inconclusive [cytotoxic, single point] | –
CC(=O)Nc1ccc(NC(=O)c2ccc(-c3ccccc3Cl)o2)cc1 | inactive | –
CCN1CCN(Cc2ccc(NC(=O)c3cc(NC(=O)c4cc(-c5ccc(OC)cc5)n[nH]4)cc(OC)c3)cc2C(F)(F)F)CC1 | inconclusive [cytotoxic, single point] | –
Cc1ccc(-c2cc(-c3ccccc3)nc(N/N=C/c3cccnc3)n2)cc1 | inconclusive [cytotoxic, single point] | –
COc1ccc(Nc2nnc(-c3ccc(O)cc3)c3ccccc23)cc1 | – | inconclusive: -30.8% [cytotoxic]
CC1(Cc2ccc(F)cc2)C(=O)Nc2c(Cl)ccc(Cl)c21 (configuration not stated) | inconclusive [cytotoxic, single point] | –
OC[C@@H]1CN(Cc2ccc(-c3ccccc3)cc2)C[C@H](n2cnc3c(N4CCCC4)ncnc32)O1 | inconclusive [cytotoxic, single point] | –
Cc1cc(NCCN2CCOCC2)n2nc(C)c(-c3ccc(Cl)cc3)c2n1 | inconclusive [cytotoxic, single point] | –
O=c1c([N+](=O)[O-])cccn1Cc1ccccc1Cl | inconclusive [cytotoxic, single point] | –
CC1(C(=O)NCc2ccccc2Br)CCN1Cc1csc2ccccc12 (configuration not stated) | inconclusive [cytotoxic, single point] | –
O=C(COC(=O)C12CC3CC(CC(Cl)(C3)C1)C2)Nc1ccc2[nH]c(=O)[nH]c2c1 | inactive | –
CCN1CCN(CCNC(=O)c2ccc3c(c2)N(Cc2cccc(Cl)c2)C(=O)c2ccccc2S3=O)CC1 (configuration not stated) | inconclusive [cytotoxic, single point] | –
Cc1ccc(-c2csc(NC(=O)C3=COCCO3)n2)cc1C | inconclusive [cytotoxic, single point] | –
CCOC(=O)c1[nH]c(CN2CCN(c3ccc(OC)cc3)CC2)c(C(=O)OCC)c1C | inconclusive [cytotoxic, single point] | –
O=C(NCc1ccccn1)C(=O)Nc1cccc2ccccc12 | inactive | –
O=C(NCc1ccc(F)cc1)c1cc(C2CCCCN2C(=O)c2ccccc2)on1 (configuration not stated) | inactive | –
COc1cc(C(F)(F)F)c(C(=O)N(C)Cc2ccc(Cl)c(Cl)c2)cn1 | inconclusive [cytotoxic, single point] | –
CC(C)(C)c1ccc(Oc2ccc(NC(=O)C3CC=CCC3C(=O)O)cc2)cc1 (configuration not stated) | inconclusive [cytotoxic, full curve, poor fit] | –
C=C1C(=O)[C@]23C[C@H]1CC[C@H]2[C@]1(C)[C@@H](O)CC[C@@](C)(C(=O)O)[C@H]1C[C@@H]3O | inconclusive [cytotoxic, single point] | –

Structure (SMILES) | Potency | activity, negative = toxicity
Nc1nnc(CC(=O)N/N=C\c2cc([N+](=O)[O-])ccc2O)s1 | inconclusive [cytotoxic, partial curve, poor fit] | –
O=C(NC1CC2CCC1C2)c1ccco1 (configuration not stated) | inactive | –
CCc1ccc(NC(=O)CCn2c(=O)c3cccn3c3ccccc32)cc1 | inconclusive [cytotoxic, single point] | –
CN1CCN(/N=C/c2ccc(N(c3ccccc3)c3ccccc3)cc2)CC1 | inactive | –
CCc1nc2ccc(C(=O)N(C)CCCN(C)C)cn2c1N(C)Cc1cc2ccccc2s1 | active: 16.4 µM | –
COc1ccc2[nH]c(=O)c(CN(Cc3cccs3)Cc3nnnn3Cc3ccccc3)cc2c1 | inconclusive [cytotoxic, single point] | –
CC(C)=C(C)c1cc2nc(NCCCN(C)C)n(C)c(=O)c2s1 | inconclusive [cytotoxic, single point] | –
Cc1cc(NC(=O)CCN2CCN(Cc3ccccc3)CC2)ccc1Br | inconclusive [cytotoxic, single point] | –
O=C(c1ccco1)N1CCN(CC(O)Cn2c3ccccc3c3ccccc32)CC1 (configuration not stated) | inconclusive [cytotoxic, partial curve] | –
Cc1cccc(N2C(N)=NC(N)=NC23CCCCC3)c1 | inconclusive [cytotoxic, single point] | –
OCC1CCCC(n2cnc3c(=S)nc[nH]c32)O1 (configuration not stated) | inactive | –
CN(CC(=O)Nc1ccc(N2CCOCC2)cc1)C(=O)CCc1ccccc1Cl | inactive | –
Clc1ccc(CNc2ccc(CNc3ncn[nH]3)cc2)c(Cl)c1 | inconclusive [cytotoxic, partial curve] | –
Cc1nc2c(C(=O)N3CCN(c4ccccn4)CC3)cnn2c(C)c1Cc1cccc(Cl)c1 | inconclusive [cytotoxic, single point] | –
COc1ccc(CC(N)c2csc(Nc3cc(Oc4ccccc4)ncn3)n2)cc1 (configuration not stated) | inconclusive [cytotoxic, single point] | –
Cc1cc(=O)[nH]c(N/N=C/c2ccccn2)n1 | inconclusive [cytotoxic, full curve] | –
O=C(NCC1CCCO1)c1ccccc1OCc1ccc(Cl)cc1 (configuration not stated) | inactive | –
NC(=S)NNC(=O)c1ccccc1 | inconclusive [cytotoxic, single point] | –
COc1ccc(C(=O)NC(=S)NNC(=O)[C@H]2C[C@@H]2c2ccccc2)cc1OC | inconclusive [cytotoxic, single point] | –
COc1ccc(C(=O)NC2CCCc3ccccc32)cc1[N+](=O)[O-] (configuration not stated) | active: 14.6 µM | –
COc1cccc(NC(=O)CCCCCn2nnc3ccccc3c2=O)c1 | inconclusive [cytotoxic, full curve] | –
